Data reported in the supplement of paper PMC4604168 (melanoma cell lines).
The other results are listed elsewhere or left out. Repeats are few or missing, and single values can be far off.

What was measured:
Test in all cases: cell count relative to DMSO control; melanoma cells; higher = more viable cells
Conditions in all cases: library dose: low library concentration; 72 h
[1] = test system: MZ2-MEL
[2] = test system: MeWo
[3] = test system: RPMI7951
[4] = test system: RVH-421
[5] = test system: SkMel28
[6] = test system: SkMel2
[7] = test system: SkMel30
[8] = test system: SkMel5
[9] = test system: UACC257
[10] = test system: UACC62
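Note: cell number obtained by counting DAPI-stained nuclei in high-throughput microscope images with image analysis software, screen run in 1,536-well plates.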

| SMILES | cell count [1] | cell count [2] | cell count [3] | cell count [4] | cell count [5] | cell count [6] | cell count [7] | cell count [8] | cell count [9] | cell count [10] |
| --- | --- | --- | --- | --- | --- | --- | --- | --- | --- | --- |
| Cn1nnc2c(C(N)=O)ncn2c1=O [temozolomide] + NCC(=O)Nc1ccc(-n2nc(C(F)(F)F)cc2-c2ccc3c(ccc4ccccc43)c2)cc1 [OSU03012] (first compound 2 µM, partner dose 1 µM) | 85.6% | 53.7% | 99.1% | 103% | 75.2% | 64.2% | 44.4% | 83.3% | 128% | 86.1% |
| O=C(O)[C@@H]1[O][Sb](=[O])([O][Sb]2(=[O])[O][C@H]([C@H](O)CO)[C@H](O)[C@H](C(=O)O)[O]2)[O][C@H]([C@H](O)CO)[C@@H]1O (stereo not given in full) [stibogluconate] + Cc1ccc(NC(=O)c2cccc(N(C)C)c2)cc1NC(=O)c1ccc(O)cc1 [ZM336372] (first compound 2 µM, partner dose 2 µM) | 74.5% | 99.1% | 88.6% | 131% | 116% | 109% | 87.9% | 104% | 112% | 127% |
| O=C(O)c1ccc2c(c1)nc(Nc1cccc(Cl)c1)c1ccncc12 + COc1cc2ncnc(Nc3ccc(Oc4ccccc4)cc3)c2cc1OC [SrcI1] (first compound 0.4 µM, partner dose 2 µM) | 82.8% | 88.3% | 115% | 114% | 107% | 103% | 86.7% | 106% | 107% | 101% |
| Cn1nnc2c(C(N)=O)ncn2c1=O [temozolomide] + C=CCn1c(=O)c2cnc(Nc3ccc(N4CCN(C)CC4)cc3)nc2n1-c1cccc(C(C)(C)O)n1 [MK1775] (first compound 2 µM, partner dose 0.02 µM) | 87.5% | 96.7% | 95.8% | 93.3% | 63.5% | 103% | 81.8% | 94.5% | 93% | 67% |
| O=C(O)c1ccc2c(c1)nc(Nc1cccc(Cl)c1)c1ccncc12 + CC1(C)NC(=O)N(c2ccc([N+](=O)[O-])c(C(F)(F)F)c2)C1=O [nilutamide] (first compound 0.4 µM, partner dose 1 µM) | 98.5% | 96.2% | 129% | 110% | 82.6% | 91.9% | 79.3% | 110% | 98.2% | 92.7% |
| O=C(O)[C@@H]1[O][Sb](=[O])([O][Sb]2(=[O])[O][C@H]([C@H](O)CO)[C@H](O)[C@H](C(=O)O)[O]2)[O][C@H]([C@H](O)CO)[C@@H]1O (stereo not given in full) [stibogluconate] + CCCCCCCCCCCC1=C(O)C(=O)C=C(O)C1=O [Embelin] (first compound 2 µM, partner dose 1.2 µM) | 104% | 110% | 92.9% | 107% | 103% | 102% | 105% | 98.1% | 113% | 98.3% |
| O=C(O)c1ccc2c(c1)nc(Nc1cccc(Cl)c1)c1ccncc12 + Oc1cc(-c2nc(-c3ccccc3)[nH]c2-c2ccncc2)ccc1Cl [L779450] (first compound 0.4 µM, partner dose 0.2 µM) | 67.1% | 90.1% | 94.7% | 89.3% | 78.7% | 92% | 91.7% | 102% | 77.1% | 68.6% |
| Cc1cc(N2CCOCC2)cc2[nH]c(-c3c(NC[C@@H](O)c4cccc(Cl)c4)cc[nH]c3=O)nc12 + COc1cc2c(Oc3ccc4[nH]c(C)cc4c3F)ncnc2cc1OCCCN1CCCC1 [cediranib] (first compound 0.2 µM, partner dose 0.4 µM) | 92.2% | 94.7% | 83% | 95.2% | 99% | 91.4% | 89.7% | 85.7% | 85.6% | 78.8% |
| O=C(Nc1cc(C(F)(F)F)cc(C(F)(F)F)c1)c1cc(Cl)ccc1O + COc1cc2ncnc(Nc3ccc(Oc4ccccc4)cc3)c2cc1OC [SrcI1] (first compound 0.016 µM, partner dose 2 µM) | 84.7% | 79.6% | 114% | 97.7% | 105% | 111% | 100% | 84.7% | 91% | 103% |
| O=C(O)c1ccc2c(c1)nc(Nc1cccc(Cl)c1)c1ccncc12 + O=c1cc(-c2cccc3c2Sc2ccccc2S3)oc(N2CCOCC2)c1 [KU55933] (first compound 0.4 µM, partner dose 1 µM) | 84.7% | 93.2% | 89% | 78.7% | 108% | 104% | 104% | 87.7% | 93.7% | 113% |
| O=C(O)c1ccc2c(c1)nc(Nc1cccc(Cl)c1)c1ccncc12 + CCc1ccc(CCOc2ccc(CC3SC(=O)NC3=O)cc2)nc1 [pioglitazone] (first compound 0.4 µM, partner dose 2 µM) | 102% | 104% | 105% | 99.2% | 93.7% | 97.9% | 91.1% | 97.3% | 103% | 110% |
| O=C(O)c1ccc2c(c1)nc(Nc1cccc(Cl)c1)c1ccncc12 + Oc1nc(-c2ccc(C(F)(F)F)cc2)nc2c1CSCC2 [XAV939] (first compound 0.4 µM, partner dose 2 µM) | 87.1% | 90.3% | 82.1% | 99.5% | 105% | 108% | 55.2% | 77.1% | 100% | 94.3% |
| O=C(O)c1ccc2c(c1)nc(Nc1cccc(Cl)c1)c1ccncc12 + O=S(=O)(c1ccccc1)N(CC(F)(F)F)c1ccc(C(O)(C(F)(F)F)C(F)(F)F)cc1 [T0901317] (first compound 0.4 µM, partner dose 1.4 µM) | 86.1% | 80.5% | 99% | 110% | 89.2% | 89.8% | 102% | 98.2% | 85.6% | 68.9% |
| O=C(O)c1ccc2c(c1)nc(Nc1cccc(Cl)c1)c1ccncc12 + NCC(=O)Nc1ccc(-n2nc(C(F)(F)F)cc2-c2ccc3c(ccc4ccccc43)c2)cc1 [OSU03012] (first compound 0.4 µM, partner dose 1 µM) | 99.9% | 60% | 101% | 108% | 83% | 72.1% | 62.1% | 95.2% | 76.2% | 87.5% |
| O=C(O)[C@@H]1[O][Sb](=[O])([O][Sb]2(=[O])[O][C@H]([C@H](O)CO)[C@H](O)[C@H](C(=O)O)[O]2)[O][C@H]([C@H](O)CO)[C@@H]1O (stereo not given in full) [stibogluconate] + COc1cc2c(Oc3ccc4[nH]c(C)cc4c3F)ncnc2cc1OCCCN1CCCC1 [cediranib] (first compound 2 µM, partner dose 0.4 µM) | 98.9% | 90.7% | 114% | 90.4% | 83% | 95.9% | 103% | 88.2% | 70.9% | 108% |
| O=C(Nc1cc(C(F)(F)F)cc(C(F)(F)F)c1)c1cc(Cl)ccc1O + O=C(Nc1cccc(Cl)c1)Nc1ncc(CCNc2ncnc3ccsc23)s1 [SNS314] (first compound 0.016 µM, partner dose 0.0008 µM) | 102% | 103% | 92.9% | 95.8% | 90.7% | 95.3% | 102% | 81.3% | 81.8% | 86.1% |
| O=C(Nc1cc(C(F)(F)F)cc(C(F)(F)F)c1)c1cc(Cl)ccc1O + Oc1nc(-c2ccc(C(F)(F)F)cc2)nc2c1CSCC2 [XAV939] (first compound 0.016 µM, partner dose 2 µM) | 99.9% | 91.2% | 104% | 109% | 86.9% | 102% | 107% | 97.8% | 81.6% | 94.9% |
| Cn1nnc2c(C(N)=O)ncn2c1=O [temozolomide] + CN(NC(=O)CC(=O)NN(C)C(=S)c1ccccc1)C(=S)c1ccccc1 [STA4783] (first compound 2 µM, partner dose 0.006 µM) | 89.3% | 105% | 87.4% | 110% | 73.1% | 95.6% | 88.3% | 88.6% | 88.1% | 82.9% |
| O=C(O)c1ccc2c(c1)nc(Nc1cccc(Cl)c1)c1ccncc12 + O=C1NC(=O)/C(=C/c2ccc(-c3ccc(F)cc3O)o2)S1 [AS252424] (first compound 0.4 µM, partner dose 1 µM) | 88% | 87% | 80.4% | 113% | 98% | 94.2% | 87.7% | 83.9% | 87.9% | 92.3% |
| Cn1nnc2c(C(N)=O)ncn2c1=O [temozolomide] + CC1(C)NC(=O)N(c2ccc([N+](=O)[O-])c(C(F)(F)F)c2)C1=O [nilutamide] (first compound 2 µM, partner dose 1 µM) | 86.7% | 97.9% | 103% | 84.2% | 73.4% | 101% | 89.3% | 91.4% | 111% | 60.7% |
| O=C(O)[C@@H]1[O][Sb](=[O])([O][Sb]2(=[O])[O][C@H]([C@H](O)CO)[C@H](O)[C@H](C(=O)O)[O]2)[O][C@H]([C@H](O)CO)[C@@H]1O (stereo not given in full) [stibogluconate] + CC(C)CCN1c2nc(Nc3cc(F)c(O)c(F)c3)ncc2N(C)C(=O)C1C [BID1870] (first compound 2 µM, partner dose 0.2 µM) | 110% | 110% | 103% | 136% | 104% | 98.2% | 94.8% | 105% | 89.2% | 88.7% |
